± gives the standard deviation of the averaged measurements. This is one part of the list.
test system: PfAP2-LT AP2 domain (GST-tagged); experiment: gcPBM binding intensity (ln(normalized median fluorescence intensity)); higher = stronger DNA binding
Method in brief: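 Using an Agilent 4 × 180k array, primer-extended double-stranded 36-bp intergenic genomic probes and negative controls were exposed for 1 h to GST-fused P. falciparum DNA-binding domains expressed in E. coli. Binding was carried out in 1× PBS with 1% milk, 0.2 mg/ml BSA, 0.5% salmon testes DNA and 0.03% Triton X-100, and protein was detected with Alexa488 anti-GST antibody and a 488 nm scan. Binding intensity is the highest Masliner-normalised natural-log median intensity across replicate spots of either probe orientation.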

Row | Sequence | gcPBM binding intensity (ln)
1 | ATTCATATATATTATACACACACATATATAAATATA [CACACA_site8228] | 9.18 ± 0.18
2 | AAAATCGTGTTCTGAATACACACTAATACAAAGTTG [CACACA_site3985] | 8.79 ± 0.35
3 | TAAAAATATAAATTTTGTACGTAAAAAATGGTTCTT [XGTACX_site1506] | 8.66 ± 0.41
4 | AATTATACTTCCTTCACACAGTTACATCATATATTA [CACACA_site5942] | 8.94 ± 0.35
5 | TAAAAAATAAGATATACACACATATATATATATATA [CACACA_site2324] | 9.87 ± 0.32
6 | ATTCACATACATTACTTACACACCATATTAATATAT [CACACA_site459] | 9.21 ± 0.41
7 | TAACATATTAATAACATATTTATAATATATTAATAA [TGCATGCA_negctrl_site243] | 8.34 ± 0.43
8 | AAAAAAAAAAAAAAGGAACACACAAGTAACAATAAA [CACACA_site8792] | 9.04 ± 0.64
9 | GTAAGAAAGAAAGGAAGTACGTAAGAAAGTAAGAAC [XGTACX_site1239] | 9.63 ± 0.59
10 | TATATATATTATATAGTGCATTGAAGAAGGGGATTT | 8.71 ± 0.38
11 | GTGTGGTTACAGACACGAACACATTTTTTAAATATT [CACACA_negctrl_site83] | 8.93 ± 0.47
12 | TTTTTTTTTCTGTGAGTGCATGTAATAAAATAAATT [GTGCAC_site9740] | 8.26 ± 0.4
13 | ATATATTTATAATACACATGCAATGATATAATATAT [TGCATGCA_site20] | 8.78 ± 0.31
14 | CATATATACATATATACACACATATATATATATATA [CACACA_site645] | 9.63 ± 0.34
15 | TATTCCTTATTATAATTCTTAAATAAAAAAAAAAAA [TGCATGCA_negctrl_site45] | 7.83 ± 0.27
16 | ATATATAAACTGAAGGGTACAATGAAAAAAGAACTT [XGTACX_site7219] | 8.98 ± 0.49
17 | TAGGATTTTTAGTTTATTGTAACTATTATTTTATTT [CACACA_negctrl_site829] | 8.74 ± 0.59
18 | CCCATTATTGTTGGGGGTACAATTTTGAATATATAT [XGTACX_site2227] | 8.95 ± 0.042
19 | CATATTTGTTGACACACACACATATTTATATAAATA [CACACA_site7648] | 9.41 ± 0.38

Row | Sequence | gcPBM binding intensity (ln)
20 | TTTATATGTTTAAAATGTACATGTGGTAAAAATTTT [XGTACX_site5907] | 8.45 ± 0.42
21 | GGGAGGATATTACACAGTACCCAGAAAATCTACGGA [XGTACX_site2551] | 8.74 ± 0.54
22 | TTATAATCTTATATATGTACATATATATATTATTAT [XGTACX_site7780] | 8.85 ± 0.42
23 | AAACATGTATTTTATTGTACACATTCATAAATCACA [XGTACX_site1420] | 8.74 ± 0.38
24 | TACATGTATGTAATATGTTTTATTTTTTTCATCTCT [XGTACX_negctrl_site79] | 8.56 ± 0.49
25 | AAATATATGAATAAATGTACGAAATGAATGGATGAA [XGTACX_site7108] | 8.96 ± 0.42
26 | CATTCAAACAAAAAAAGTACTCATCACATAATATAT [XGTACX_site1251] | 8.84 ± 0.46
27 | AAAAAAAAAAAAAAACTTACGATTTTAAAAAGATGG [GTGCAC_negctrl_site291] | 8.34 ± 0.47
28 | GAAATGTACAAATACGTACACACATATATATATATA [CACACA_site1541] | 9.87 ± 0.14
29 | GCAAAATATTTAAAATAATATATGTGTATATTTTTA [GTGCAC_negctrl_site149] | 8.41 ± 0.39
30 | TTTATATTGTTTTATTGTACATATATATTTATACAT [XGTACX_site6821] | 9.03 ± 0.43
31 | TTAATTAGAAATCATACACACATATATATATATATA [CACACA_site173] | 9.59 ± 0.19
32 | AAAAAAAAAAAAAACACACAAACGCTTTTTTTTTTT [CACACA_site686] | 8.9 ± 0.38
33 | TACACATACACATACACACGCATAGAAACATACGAA [CACACA_site2137] | 9.48 ± 0.33
34 | TATGAAAATGTTCATACACACATAAAAAAAAAAAAA [CACACA_site3236] | 8.84 ± 0.47
35 | ATTTTAAATGTTATGCGTACATATTAATCCTACTTA [XGTACX_site1344] | 8.8 ± 0.4
36 | TGTTTGAATAACAAAAAAAAAAAAAAAATTAAAAAA [CACACA_negctrl_site1332] | 8.22 ± 0.56
37 | TTTTAAAAATCTATATGTACACAATACGTCTATAAA [XGTACX_site5787] | 8.52 ± 0.41
38 | TACATATTTTTATATACACACAATAATTATTATAAA [CACACA_site1659] | 8.54 ± 0.43

Row | Sequence | gcPBM binding intensity (ln)
39 | TTTTAAATATGCAGATGTACATTATAATGTTTTATT [XGTACX_site2079] | 8.87 ± 0.47
40 | GATATGTACTAATACACACACATATAGATTTATATA [CACACA_site6610] | 9.35 ± 0.43
41 | TATATTTATTATAACACACACATATATATATTATAT [CACACA_site1061] | 9.1 ± 0.33
42 | AAAATAAAAAATATAACACACAATAAATATATATAT [CACACA_site1926] | 9.11 ± 0.53
43 | ATAATCATTTGGATATTCACAATATTTAAAATTAAA [CACACA_negctrl_site909] | 8.21 ± 0.46
44 | GAAAAAAAAAAAAAAAAAAAAAAATTCATTTTTTTT [XGTACX_negctrl_site54] | 8.12 ± 0.54
45 | TTTTAACTTTTATATTGTACGTTGTTTATTTTATTT [XGTACX_site7504] | 8.99 ± 0.55
46 | ATTTCCTGGCTACTGTGTACTGACCTCCAGACTGCT [XGTACX_site2005] | 9.13 ± 0.59
47 | TATACAAAATAACTAGCACACATATGTATAAACATA [CACACA_site9236] | 9.13 ± 0.38
48 | ATAAATAAAATTAGGTGTACTTTAATTAAAGAAAAT [XGTACX_site3319] | 8.62 ± 0.42
49 | CATAAAAATATTTTCTGTACATATTCATATGACGTT [XGTACX_site3406] | 8.88 ± 0.49
50 | TATACATATATAATATGTACATATATTTTTTTTTAA [XGTACX_site2938] | 8.45 ± 0.34
51 | ATAAATATTGGGTGCACACACATAATATATATATAT [CACACA_site2272] | 9.59 ± 0.35
52 | AGGTTCCCAAAATGCACACCAATGAAATTATTTATT [CACACA_site553] | 8.82 ± 0.42
53 | ATATGTAATAATAAATGTACGAAACATTGAACGATG [XGTACX_site1266] | 9.14 ± 0.41
54 | GAATCATCCAAAATTGCATGCAAGGAAGAAGAAAAA [TGCATGCA_site764] | 9.13 ± 0.45
55 | TTTTTATATATCACGTGTACATATTTATTTTTACTC [XGTACX_site8049] | 9.04 ± 0.69
56 | AAATCACCTTAAGAACGTACAAACAGAAAAAAATTA [XGTACX_site4623] | 8.87 ± 0.45
